Test results as given in paper PMC5590943, “Pharmacological characterisation of S 47445, a novel positive allosteric modulator of AMPA receptors” (PLoS ONE, 2017).

Test system: Na+ channel (site 2)

O=C1c2cc3nnn(CCc4cccc(F)c4)c(=O)c3cc2OCN1C1CC1 [S 47445, 8-cyclopropyl-3-[2-(3-fluorophenyl)ethyl]-7,8-dihydro-3H-[1,3]oxazino[6,5-g][1,2,3]benzotriazine-4,9-dione]
% Inhibition of control specific binding (S 47445 1.0E-05 M): 41% | % Inhibition of control specific binding (S 47445 1.0E-07 M): 2%

Like-named read-outs stand apart in the source and are kept apart here.
